In the assay the test system is Trichoderma virens ATCC 9645. Put plainly: growth yield (OD600) with compound + IPBC relative to untreated control; higher = less growth inhibition. Particulars: compound concentration: 100 uM, IPBC concentration: 200 ng/ml. The method, boiled down:
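Spores of Trichoderma virens ATCC 9645, taken from potato dextrose agar plates grown for 7 days, were suspended at 15,000 spores ml^−1 in potato dextrose broth. In 96-well plates, 100 μl aliquots held library compounds at 100 μM final, either alone or together with a biocide at 200 ng ml^−1, and were grown at 30 °C. A BioTek EL800 read OD600 at 40 h and 72 h. Growth values are given relative to the control lacking both agents and are means of duplicate screens.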

Molecules are shown by their SMILES. Structures can show the parent of a compound that is named as a salt. ± gives the standard error. About 130 (10%) of roughly 1,300 compounds showed an effect of 50% or more. The list shows a part of the results, in another mix than the full data.

Turning to `Nc1ccc(C(=O)O)c(O)c1` [4-aminosalicylic acid] + CCCCNC(=O)OCC#CI [3-iodo-2-propynyl butylcarbamate (IPBC)], the growth yield was found to be 87.36 ± 0.32% (40 h) and 94.18 ± 0.42% (72 h).

In the case of `O=C1Nc2ccc(Cl)cc2[C@@](C#CC2CC2)(C(F)(F)F)O1` [Efavirenz] + CCCCNC(=O)OCC#CI [3-iodo-2-propynyl butylcarbamate (IPBC)], under “40 h”, the growth yield turned out to be 39.4 ± 2.9%.

`O=C1c2cccc(O)c2C(=O)c2c(O)cccc21` [1,8-Dihydroxyanthraquinone] + CCCCNC(=O)OCC#CI [3-iodo-2-propynyl butylcarbamate (IPBC)]: the growth yield by setting is: (40 h) 55.12 ± 0.16%; (72 h) 77.2 ± 1.9%.

`CCN(CC)CCNC(=O)c1cc(Br)c(N)cc1OC` [Bromopride] + CCCCNC(=O)OCC#CI [3-iodo-2-propynyl butylcarbamate (IPBC)]: the growth yield (40 h) was determined as 92.6 ± 14% and the growth yield (72 h) came out at 93.8 ± 7.5%.

Consider `CCCCC(=O)N(Cc1ccc(-c2ccccc2-c2nnn[nH]2)cc1)[C@H](C(=O)O)C(C)C` [Valsartan] + CCCCNC(=O)OCC#CI [3-iodo-2-propynyl butylcarbamate (IPBC)], for which the growth yield turned out to be 95.3 ± 8.9% (40 h) and 101 ± 7.7% (72 h).

In the case of `OC(CCN1CCCCC1)(c1ccccc1)c1ccccc1` [Pridinol methanesulfonate salt] + CCCCNC(=O)OCC#CI [3-iodo-2-propynyl butylcarbamate (IPBC)], the growth yield (40 h) is 94.2 ± 4.3% and the growth yield (72 h) worked out at 94.1 ± 2.2%.

Turning to `C[C@H](CCC(=O)O)[C@H]1CC[C@H]2[C@@H]3C(=O)C[C@@H]4CC(=O)CC[C@]4(C)[C@H]3CC(=O)[C@]12C` [Dehydrocholic acid] + CCCCNC(=O)OCC#CI [3-iodo-2-propynyl butylcarbamate (IPBC)], the growth yield (40 h) was 95.5 ± 9.1% and the growth yield (72 h) is 97.3 ± 4%.

With `CC(=O)O[C@H]1C[C@@H]2CC[C@@H]3[C@H](CC[C@@]4(C)[C@H]3C[C@H]([N+]3(C)CCCCC3)[C@@H]4OC(C)=O)[C@@]2(C)C[C@@H]1[N+]1(C)CCCCC1` [Pancuronium bromide] + CCCCNC(=O)OCC#CI [3-iodo-2-propynyl butylcarbamate (IPBC)], the growth yield (40 h) was 80.2 ± 4% and the growth yield (72 h) is 86.21 ± 0.21%.

On to `O=C1c2c(O)ccc(O)c2C(=O)c2c(NCCNCCO)ccc(NCCNCCO)c21` [Mitoxantrone dihydrochloride] + CCCCNC(=O)OCC#CI [3-iodo-2-propynyl butylcarbamate (IPBC)], for which the growth yield stood at 1.27 ± 1.3% (40 h) and 0% (72 h).

As for `O=C(NC(Cc1cc(=O)[nH]c2ccccc12)C(=O)O)c1ccc(Cl)cc1` (stereo unspecified) [Rebamipide] + CCCCNC(=O)OCC#CI [3-iodo-2-propynyl butylcarbamate (IPBC)], the growth yield is, setting by setting: (40 h) 89.7 ± 5.6%; (72 h) 91.9 ± 3.1%.

Take `C[N+](C)(C)CCOC(N)=O` [Carbachol] + CCCCNC(=O)OCC#CI [3-iodo-2-propynyl butylcarbamate (IPBC)]: the growth yield is 100 ± 14% (40 h) and 97.1 ± 7.3% (72 h).

For the compound `CC(C)(C)NC[C@H](O)COc1cccc2c1CCCC2=O` [(-) -Levobunolol hydrochloride] + CCCCNC(=O)OCC#CI [3-iodo-2-propynyl butylcarbamate (IPBC)], the growth yield reads like this: (40 h) 97.8 ± 16%; (72 h) 99.2 ± 11%.

Regarding `Nc1ncn(C2OC(CO)C(O)C2O)c(=O)n1` (stereo unspecified) [Azacytidine-5] + CCCCNC(=O)OCC#CI [3-iodo-2-propynyl butylcarbamate (IPBC)], the growth yield is, setting by setting: (40 h) 67.2 ± 3%; (72 h) 91.9 ± 1.1%.

Turning to `N[C@@H](Cc1ccc(O)c(O)c1)C(=O)O` [Levodopa] + CCCCNC(=O)OCC#CI [3-iodo-2-propynyl butylcarbamate (IPBC)], the growth yield is, setting by setting: (40 h) 87.4 ± 0.95%; (72 h) 89.98 ± 0.63%.

For `COc1ccc(-c2ccc3cc(C(=O)O)ccc3c2)cc1C12CC3CC(CC(C3)C1)C2` [Adapalene] + CCCCNC(=O)OCC#CI [3-iodo-2-propynyl butylcarbamate (IPBC)], the growth yield was 91.5 ± 1.6% (40 h) and 92.9 ± 1.7% (72 h).

In the case of `CCCC(C)C1(CC)C(=O)NC(=O)NC1=O` (stereo unspecified) [Pentobarbital] + CCCCNC(=O)OCC#CI [3-iodo-2-propynyl butylcarbamate (IPBC)], the growth yield was 87.4 ± 2.9% (40 h) and 94.2 ± 2.7% (72 h).

For the compound `CCCCc1oc2ccccc2c1C(=O)c1cc(I)c(OCCN(CC)CC)c(I)c1` [Amiodarone hydrochloride] + CCCCNC(=O)OCC#CI [3-iodo-2-propynyl butylcarbamate (IPBC)], the growth yield was 2.06 ± 0.16% (40 h) and 2.41 ± 0.1% (72 h).

Regarding `Cc1cccc(N(C)C(=S)Oc2ccc3ccccc3c2)c1` [Tolnaftate] + CCCCNC(=O)OCC#CI [3-iodo-2-propynyl butylcarbamate (IPBC)], the growth yield reads like this: (40 h) 0%; (72 h) 35.9 ± 0.84%.

Turning to `CC1(C)O[C@@H]2C[C@H]3[C@@H]4C[C@H](F)C5=CC(=O)CC[C@]5(C)[C@H]4[C@@H](O)C[C@]3(C)[C@]2(C(=O)CO)O1` [Flurandrenolide] + CCCCNC(=O)OCC#CI [3-iodo-2-propynyl butylcarbamate (IPBC)], the growth yield runs as follows: (40 h) 89.6 ± 2.9%; (72 h) 92.1 ± 2.1%.

Take `NNC(=O)c1ccncc1` [Isoniazid] + CCCCNC(=O)OCC#CI [3-iodo-2-propynyl butylcarbamate (IPBC)]: the growth yield (40 h) was found to be 110 ± 1.6% and the growth yield (72 h) came to 111 ± 3.6%.

Take `CCN(CC)CCN[C@@H](C(=O)OCCC(C)C)c1ccccc1` [Camylofine chlorhydrate] + CCCCNC(=O)OCC#CI [3-iodo-2-propynyl butylcarbamate (IPBC)]: the growth yield was determined as 81.01 ± 0.64% (40 h) and 88.52 ± 0.84% (72 h).

For the compound `CN1CCCN=C1/C=C/c1cccs1` [Pyrantel tartrate] + CCCCNC(=O)OCC#CI [3-iodo-2-propynyl butylcarbamate (IPBC)], the growth yield (40 h) worked out at 96.6 ± 8.3% and the growth yield (72 h) worked out at 101 ± 4.3%.

Turning to `C#C[C@]1(O)CC[C@H]2[C@@H]3CCC4=Cc5oncc5C[C@]4(C)[C@H]3CC[C@@]21C` [Danazol] + CCCCNC(=O)OCC#CI [3-iodo-2-propynyl butylcarbamate (IPBC)], the growth yield reads like this: (40 h) 82 ± 12%; (72 h) 96.4 ± 9.5%.

On to `O=C(Nc1ccc([N+](=O)[O-])cc1Cl)c1cc(Cl)ccc1O` [Niclosamide] + CCCCNC(=O)OCC#CI [3-iodo-2-propynyl butylcarbamate (IPBC)], for which the growth yield is, setting by setting: (40 h) 83.7 ± 2.4%; (72 h) 90.4 ± 2.5%.

In the case of `CC(C)C(=O)c1c(C(C)C)nn2ccccc12` [Ibudilast] + CCCCNC(=O)OCC#CI [3-iodo-2-propynyl butylcarbamate (IPBC)], the growth yield (40 h) came out at 60.52 ± 0.48% and the growth yield (72 h) worked out at 73.1 ± 0.1%.

For `CC(C)NCC(O)COc1cccc2[nH]ccc12` (stereo unspecified) [Pindolol] + CCCCNC(=O)OCC#CI [3-iodo-2-propynyl butylcarbamate (IPBC)], the growth yield is, setting by setting: (40 h) 105 ± 2.7%; (72 h) 102.25 ± 0.1%.

Values taken from the supplement of paper PMC8007513.
